According to PubChem BioAssay AID1466 (National Center for Advancing Translational Sciences (NCATS), 2008):
Screen size: about 200,000 compounds; about 10 (0.005%) were called active. Inconclusive means that the source gave no clear call. Such entries were picked first, then a sample of the others. Calls follow the shape of the dose curve; as a rule, active = well fitted inhibition curve with a large enough effect; inconclusive = small, poorly fitted or top-dose-only effect, or effect the other way, or another doubt; inactive = no such curve, though single readings can be large or run the other way. A potency beside an inconclusive call is a rough fit, not a confirmed value.

These molecules were tested against Lysosomal alpha-glucosidase (Homo sapiens) (UniProt P10253) (assay: qHTS Assay for Inhibitors of Human alpha-Glucosidase as a Potential Chaperone Treatment of Pompe Disease). Details: purified human GAA, 4-MU-alpha-glucoside fluorescence; activity change, negative = inhibition: at 76.9 µM (top of the series) unless noted.
In short: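 Activity normalized between no-enzyme (basal) and enzyme-only wells. Conditions: 4 nM human enzyme, 400 uM fluorogenic substrate, citrate/phosphate pH 5.0 with Tween-20, 20 min room temperature, compounds up to 77 uM.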
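For activity change, negative = inhibition in this document: plate controls were uninhibited enzyme wells for no effect and no-enzyme background for full effect.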
Potency is read from the fitted curve at half-maximal effect; tags tell the direction and shape of the fitted curve.

Potency, inconclusive:
CCCNC(=O)CCc1c(C)nc2nc(-c3cc(OC)cc(OC)c3)nn2c1C 56.2 µM [inhibitor, single point]
CCN(CC)S(=O)(=O)c1ccc(OC)c(NC(=O)Cc2cccs2)c1 11.2 µM [inhibitor, single point]
CCOC(=O)/C(=N\Nc1ccccc1)S(=O)(=O)c1ccccc1 56.2 µM [inhibitor, single point]
CC(=O)c1ccc(NC(=O)CSc2nnc(Cn3c(=O)sc4ccccc43)n2C)cc1 56.2 µM [inhibitor, single point]
COc1ccccc1Oc1ccc(NC(=O)c2ccccc2C)cc1 3.16 µM [inhibitor, full curve]
CCOc1ccccc1OCCCC(=O)N1CCN(S(=O)(=O)c2ccc(C)cc2)CC1 56.2 µM [inhibitor, single point]
COCc1ccc([C@@H]2C[C@H]3CN(Cc4ccccc4C)C(=O)[C@]34CCCN24)o1 3.55 µM [inhibitor, single point]
O=[N+]([O-])c1ccc(Sc2nnnn2-c2ccccc2)nc1 35.5 µM [inhibitor, single point]
COc1cccc(NC(=O)CN2CCN(S(=O)(=O)c3ccc(C(C)C)cc3)CC2)c1 35.5 µM [inhibitor, single point]
N#Cc1c(N)n(CCOC(=O)c2ccc(Cl)cc2)c2nc3ccccc3nc12 2.24 µM [activator, full curve]
Cc1ccc2nc(-c3cccc(NS(C)(=O)=O)c3)cc(-c3ccccc3)c2c1 4.47 µM [inhibitor, single point]
CN(C)CCCN(C(=O)CCc1ccccc1)c1nc2ccc(Cl)cc2s1 50.1 µM [inhibitor, single point]
CC(c1ccc(Br)cc1)N1CC23C=CC(O2)C(C(=O)O)C3C1=O (stereo not drawn) 28.2 µM [inhibitor, single point]
CC1CCN(c2ccc(NC(=O)c3cccnc3)cc2)CC1 10 µM [inhibitor, full curve]
Nc1c(C(=O)NCC2CCCO2)c2nc3ccccc3nc2n1-c1ccccc1 (stereo not drawn) 35.5 µM [activator, partial curve]
CCOc1ccc(NC(=O)C2CCCN(C(=O)NCc3ccccc3)C2)cc1 (stereo not drawn) 8.91 µM [inhibitor, partial curve]
CCNC(=O)/N=C1/NC(=O)C(C(C)C)O1 (stereo not drawn) 7.08 µM [inhibitor, single point]
O=C(c1cccn2c(=O)c3cc(Cl)ccc3nc12)N1CCOCC1 31.6 µM [activator, partial curve]
Cc1cc(/C=C2/SC(=S)N(c3ccc([N+](=O)[O-])cc3)C2=O)c(C)n1-c1cccnc1 28.2 µM [inhibitor, single point]
COc1ccc(-n2cc(CNCC3CCOCC3)c(-c3cccc(F)c3)n2)cc1 14.1 µM [inhibitor, partial curve]
CCn1c(SCC(=O)NCc2ccco2)nc2ccccc2c1=O 0.562 µM [inhibitor, full curve, poor fit]
N#Cc1c(-c2ccco2)cc(-c2ccccn2)nc1N 28.2 µM [activator, partial curve]
Cc1nn(Cc2ccc(Cl)c(Cl)c2)c(C)c1NC(=O)c1sc2ccccc2c1Cl 12.6 µM [inhibitor, single point]
COc1ccc(O[C@H]2C=C[C@@H](c3ccccc3)O[C@@H]2COC(=O)CC/C(C)=N/O[C@@H](C)c2cn([C@H](CO)Cc3ccccc3)nn2)cc1 20 µM [inhibitor, single point]
Nc1c(C(=O)NCCN2CCOCC2)c2nc3ccccc3nc2n1-c1ccccc1 35.5 µM [activator, partial curve]
O=c1cc(CSc2ccccc2)nc(-c2ccncc2)[nH]1 0.794 µM [inhibitor, full curve, poor fit]
C[N+]1(CCCOC(=O)C2(c3ccccc3)CCCC2)CCOCC1 39.8 µM [inhibitor, single point]
Cc1cccc(NC(=O)CSc2nnc(CNC(=O)c3ccc(S(=O)(=O)N(C)C)cc3)n2-c2ccc(F)cc2)c1 56.2 µM [inhibitor, single point]
Cc1cc(C)n(-c2nc(NCC(C)O)c3c4c(sc3n2)CCCC4)n1 (stereo not drawn) 20 µM [activator, partial curve]
c1ccc(N2CCN(c3nnc(Cc4cccnc4)c4ccccc34)CC2)nc1 11.2 µM [inhibitor, single point]
CCC(C)(C)n1nnnc1CN(Cc1cc2cc(OC)c(OC)cc2[nH]c1=O)C1CCCC1 50.1 µM [activator, single point]
Cc1nnc(NC(=O)Nc2cccc(Cl)c2)s1 50.1 µM [inhibitor, single point]
CCC(=O)Nc1nonc1-c1nc2ccccc2n1CCC(C)C 7.08 µM [inhibitor, full curve, poor fit]
Cn1c(=O)cc(SCC(=O)N2CCN(Cc3ccc4c(c3)OCO4)CC2)c2ccccc21 44.7 µM [inhibitor, partial curve, poor fit]
COc1cccc(C2=NOC(C(=O)N3CCN(Cc4ccccc4)CC3)C2)c1OC (stereo not drawn) 11.2 µM [inhibitor, single point]
CCN(CC)CCCNC(=O)CNC(=S)N(CCCN1CCOCC1)Cc1cccs1 0.316 µM [activator, full curve, poor fit]
CCOC(=O)C1C(=O)C=C(c2ccc(NS(C)(=O)=O)cc2)CC1c1ccco1 (stereo not drawn) 56.2 µM [inhibitor, single point]
Cn1c2c(c(=O)n(C)c1=O)C(C(F)(F)F)(C(F)(F)F)N=C(CCC1CCCCC1)N2 7.08 µM [inhibitor, partial curve]
O=C(NC1CCCC1)c1ccc(COCC(F)(F)F)o1 50.1 µM [inhibitor, partial curve, poor fit]
CC(Nc1nc(N2CCCCC2)nc2ccccc12)c1ccccc1 (stereo not drawn) 31.6 µM [activator, single point]
CC1=C(C(=O)NC(C)c2ccc3c(c2)OCCO3)C2(CCC(C)CC2)OC1=O (stereo not drawn) 31.6 µM [inhibitor, partial curve, poor fit]
CCCCCOC(=O)c1c(N)n(CCOC)c2nc3ccccc3nc12 35.5 µM [activator, partial curve]
CCCn1c2c(c(O)c(C(=O)Nc3ncccc3C)c1=O)CCCC2 56.2 µM [inhibitor, single point]
O=[N+]([O-])c1ccc(O)c(/C=N/NC2=NS(=O)(=O)c3ccccc32)c1 7.94 µM [inhibitor, full curve, poor fit]
O=C(O)c1ccc2c(c1)C(=O)N(CCC1=CCCCC1)C2=O 56.2 µM [inhibitor, single point]
CCc1nnc(NC(=O)C2CCN(C(=O)NC3CCCCC3)CC2)s1 8.91 µM [inhibitor, partial curve]
CCOC(=O)c1c(N)sc(C(=O)OCCOC)c1C 0.178 µM [inhibitor, full curve, poor fit]

Activity change, negative = inhibition, inactive:
Cc1ccccc1/C=N/Nc1nc2ccccc2[nH]1 -8.19%
Cc1ccc(S(=O)(=O)N2CCC(C(=O)N[C@@H](C)C(=O)NC3CCS(=O)(=O)C3)CC2)cc1 (stereo partly drawn) -10.8%
NC(=O)COC(=O)CCCc1c[nH]c2ccccc12 -5.57%
O=C1CCCC(=NCc2ccco2)C1 -0.0275%

Activity change, negative = inhibition, inconclusive:
Cc1ccccc1OC1=NS(=O)(=O)c2ccccc21 2.81% [activator]
CC1(C)Cc2c(sc3c2c(=N)n(Cc2ccco2)c(=O)n3CC(=O)Nc2ccc(Cl)cc2)CO1 -15.4% [inhibitor]
Cc1cccc(C)c1NC(=S)NCc1ccccc1 10.5% [activator]
FC(F)(F)c1cccc(NC(=S)NNC(=S)NCc2ccccc2)c1 -15.2% [inhibitor]
CC1(c2ccccn2)Nc2ccccc2-c2nc3ccccc3n21 (stereo not drawn) 72.2% [activator]
CN(C)S(=O)(=O)N1CCN(S(=O)(=O)N2CCOCC2)CC1 11.3% [activator]
COc1cc(NC(=S)NNC(=O)C(C)(C)O)cc(OC)c1 18.9% [activator]
CN1C=CC=C/C1=C1\SC(=S)N(CC(=O)O)C1=O 1.04% [activator]
NNC(=O)c1cc(O)c(O)c(O)c1 -16.3% [inhibitor]
COC(=O)C1=C(Nc2ccc(C)cc2)C=C(C)C(C(=O)OC)C1c1cccc(OC)c1 (stereo not drawn) -17.2% [inhibitor]
COc1ccc(CCN(Cc2cc3cc(C)ccc3[nH]c2=O)C(=O)N2CCCC2)cc1OC 3.9% [activator]
COc1cc2cc(CN(Cc3cccnc3)C(=O)Nc3ccccc3F)c(=O)[nH]c2cc1OC 21% [activator]
